Test results published in PMC12136788.
Residue numbers refer to the chain shown, from its start. The list shows a part of the results.

T1: UNK ZnF1-3 (human, UniProt Q9C0B0 31-174)
T1 sequence: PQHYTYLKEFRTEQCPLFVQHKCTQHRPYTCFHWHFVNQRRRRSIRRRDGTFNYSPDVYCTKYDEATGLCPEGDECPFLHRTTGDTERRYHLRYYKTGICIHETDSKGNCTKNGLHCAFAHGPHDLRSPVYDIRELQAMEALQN

B1: chr4:25749455:25749456:-_ENSG00000091490_ENST00000264868|hu_hu|hu_hu_hu_mus_False|58_98 (ssRNA)
RNA: GGGAGUUCUACAGUCCGACGAUCGCACUAUGACCUCCCCUAGAAAACACAGGGGGAAAAAAUGUAAACCAAUGUACAAAGCUAUUGCCUUCCCUGUGUGUGGAGUGUUUGUCUCAAGGCUCCUUCUAGCUGCUGGAUUUGGGACAACAGAGGAUUGAGCAUCA
B2: chr3:148802587:148802588:-_ENSG00000071794_ENST00000310053|hu_mus|hu_hu_hu_mus_False|28_98 (ssRNA)
RNA: GGGAGUUCUACAGUCCGACGAUCUCCAACAACUUGUCCUCUCAAACUUCCAAAUAAAACCAAAUCUUGCUCUUCAUCACUCGUUAGGAAGUCAUCUGGAGGAAUAACAUCUUGGAAUUCAAAAUGUGGCAAGAAAGUUGAGUACAACAGAGGAUUGAGCAUCA
B3: chr4:76721835:76721836:+_ENSG00000138768_ENST00000264904|hu_mus|hu_hu_hu_mus_True|68_98 (ssRNA)
RNA: GGGAGUUCUACAGUCCGACGAUCGUUUGGCUGGGGUUCUGAGAUGCCUCUGGAAUAUAACUCAUGUUGCUAAUAAAAUCCUAGUUUCUCUAUGAAAUUCUCUUUGCCAAUCCUCUUCUCUAUUAGUUGCUUUAGUUUCUCUUUCAACAGAGGAUUGAGCAUCA
B4: chr2:198351390:198351391:-_ENSG00000144381_ENST00000345042|hu_hu|hu_hu_hu_mus_False|8_38 (ssRNA)
RNA: GGGAGUUCUACAGUCCGACGAUCUCAUUCCCACCCUCCACAGAAAGGCUGCUUCUGAACUCUCAUGUGGUGACACAGCGCUACAGUCCUGAUGCUCACAGAAUAGUAGAGAUGCCUCAGUGAUUUAUUAAGUUGAAAGGACACCAACAGAGGAUUGAGCAUCA
B5: chr11:58768410:58768411:+_ENSMUSG00000078851_ENSMUST00000108817|mus_mus|FALSE|FALSE (ssRNA)
RNA: GGGAGUUCUACAGUCCGACGAUCCUUCUUAUUGUCGCGGGCCGCAUUACCAGCCAAUUCCAGGAUCUCAGCAGUCAGAUAUUCUAGCACAGCCGCCAGGUACACCGGGGCACCAGCGCCGACCCGCUCCGAAUAAUUACCCUUCAACAGAGGAUUGAGCAUCA
B6: chr2:198351390:198351391:-_ENSG00000144381_ENST00000345042|hu_hu|hu_hu_hu_mus_False|8_8 (ssRNA)
RNA: B4 RNA with U103C
B7: chr18:25531195:25531196:-_ENSG00000170558_ENST00000399380|hu_mus|FALSE|FALSE (ssRNA)
RNA: GGGAGUUCUACAGUCCGACGAUCCUUUUUUUUUUUUUGUGUGUAAUUUUUUUGGUACAAAUUAUGUAAAACACUUGUGCUAAGAACUUUUACCCCUCCCCAAAACGAAACAAACAAAAAGAAAAUAAAAAAAUUUAAAAAAAACAACAGAGGAUUGAGCAUCA
B8: chr3:176767854:176767855:-_ENSG00000177565_ENST00000430069|hu_hu|motif|central (ssRNA)
RNA: GGGAGUUCUACAGUCCGACGAUCGACAUCCUUGUUGCUUGGAACAUCUUGCCCUCCUUCUCGUAUACAAUGUCUAAGUACGGACUGUGUAGAGCCACUGGUGCUGUUCUCACUAAGAUUCCAUAUUCUUGCUGUUGAGUCUCCCAACAGAGGAUUGAGCAUCA
B9: chr2:192225418:192225419:+_ENSG00000128641_ENST00000304164|hu_hu|motif|central (ssRNA)
RNA: GGGAGUUCUACAGUCCGACGAUCAUAGAACACAUGGAAGUUUCUUUCACCUCUUGGCUGUUUAACAACCCGAGAUUUCUCGGAAAGAUAGUUACUUAUUACUCCUCCUAGUGGAUCGCCUUUAAAGUCAAAUUCAAUAUCCAUCAACAGAGGAUUGAGCAUCA
B10: chr3:90056536:90056537:+_ENSMUSG00000052310_ENSMUST00000015467|mus_mus|motif|central (ssRNA)
RNA: GGGAGUUCUACAGUCCGACGAUCCAGCUUGUCUCUGAGAUGUACUGCCUGGCCUCUGACUGUAGCAGUCUGCCUCCUUCGGAUGUCCCUGACCACGUCUGUAGUAACUUCGCUAUCUCUUAUUCUUUGGGUCUGGGGCUAGCCCAACAGAGGAUUGAGCAUCA
B11: 57970547_57971517_2536_CDS_ENSG00000155980_ENST00000455537|human|control|control (ssRNA)
RNA: GGGAGUUCUACAGUCCGACGAUCCUCAUGUCGCUCGUACAGAAAUGUCAGCUCCUGCAGCUUGGUGCUCUUCUCGUGUUCUUCGCUCUUCAGCUUCUCGUAGUCAGCCUGAAGCUUCUCUAGCUCUAACUGGAGCUUCUGAUUCAACAGAGGAUUGAGCAUCA
B12: chr10:112364808:112364809:-_ENSMUSG00000074748_ENSMUST00000099276|mus_hu|FALSE|FALSE (ssRNA)
RNA: GGGAGUUCUACAGUCCGACGAUCAGGGCAAGGAAGAGGGCUCUGCUCAGCCAAAUGCUAGGCCUUGUCCUCAAGUCAGCUGAAUCAUUGUAGUCUGGACUUUUGGGAAACACGUGGUUUUGACCUUUUCUUCUUGCUGGAGUCCAACAGAGGAUUGAGCAUCA
B13: chr1:54683890:54683891:+_ENSG00000116221_ENST00000360840|hu_hu|FALSE|FALSE (ssRNA)
RNA: GGGAGUUCUACAGUCCGACGAUCGGGGUUUCAGGAUUCAGAGGGGUCCUCCGCUCACGCAGCACCAUGCAAAUAUAGAGCUAAAAACUUUCUGAAUGUCUCUGGCUUGAAACCAACUGGGCCAACAGGUUCCACAACCACUCUCAACAGAGGAUUGAGCAUCA
B14: chr13:112505112:112505113:+_ENSMUSG00000032727_ENSMUST00000109272|mus_hu|FALSE|FALSE (ssRNA)
RNA: GGGAGUUCUACAGUCCGACGAUCCAUAAAGGAUUCAGGGACGGCAAUGCCCAUUUUCAAUCUUUUUGCUGGUCUCUCUGACUCUUCACUGCACAUGUUCAUAGGGUUUAGCUCCGAGUGAUAAAAUCCAGUCUCAAAUAAAUUCAACAGAGGAUUGAGCAUCA
B15: chr16:18804634:18804635:-_ENSG00000170540_ENST00000304414|hu_mus|FALSE|FALSE (ssRNA)
RNA: GGGAGUUCUACAGUCCGACGAUCAUUUUUCUUUUCUUUUUGCUUGAGAAGUUUGUUUAUCUCCCUUUUGGCCAUUCCAAUGUACUUCAGAAUGAUCCCAUGUUGGUUUAGUCCAGGAAGCAACAGCACAAAUGUCACAAUCAGCAACAGAGGAUUGAGCAUCA
B16: chr10:32300344:32300345:-_ENSG00000170759_ENST00000302418|hu_mus|FALSE|FALSE (ssRNA)
RNA: GGGAGUUCUACAGUCCGACGAUCGAGUUUACAAGAGUGGGUAGGAAACAGCUGUACAGGGUAGGAGUAAUUUACACAUUAAAAAAUUAAAUUUCUACAAUCCCAAGGAAUAGAGGUUAGUUAGUGAAAGACUGAUUUUAUGUCCAACAGAGGAUUGAGCAUCA
B17: chr10:120833061:120833062:-_ENSG00000107581_ENST00000369144|perfect_dup|FALSE|FALSE (ssRNA)
RNA: GGGAGUUCUACAGUCCGACGAUCUUGGGACUCUUCUUUAGCAGCUUCUGUUUUUUCCUCUGCUAAUUUCAAAUAUGCCCUAACAACAUCUUCUAAAGAUUUAAUGUUUACCUGUUGGCAUAUGUUCUUAUAUUGAUAUAACCCCAACAGAGGAUUGAGCAUCA
B18: chr2:31472812:31472813:+_ENSMUSG00000026843_ENSMUST00000055244|mus_mus|FALSE|FALSE (ssRNA)
RNA: GGGAGUUCUACAGUCCGACGAUCCGAGCACGUUUCAAACGGAAUGUUCCUCAGGUCAAUCCAAAAUGCAGGAAAAAAUAGCUUCAACUCCGUGUUUCCUUUAAAAAUACAUGUUAUCUGUACAGAUACACUACAGUAAACAUUCAACAGAGGAUUGAGCAUCA
B19: chr9:66219764:66219765:+_ENSMUSG00000038664_ENSMUST00000042824|mus_hu|motif|central (ssRNA)
RNA: GGGAGUUCUACAGUCCGACGAUCUUCAAAGUCUGGCAACUGUGGUCCUUUGAGGCAUAAAACUUGUUGGGGCAAAGGUACGGCUUCCUUAUUGCUAACCAGUUUAGAAUACAGAACAGCAACUCCCUCUCUUGUAGCAAUAGACAACAGAGGAUUGAGCAUCA
B20: chr16:94913438:94913439:+_ENSMUSG00000022897_ENSMUST00000122284|mus_hu|FALSE|FALSE (ssRNA)
RNA: GGGAGUUCUACAGUCCGACGAUCAGGGAUGUCAUGGAGUGGUGACUGUGGCCAACCUCCAUAGAAUCUUGGGUAGAGGAGCUAUUCGUUGGAGAAUUGUAGACCCUUGGCCUGGUCCGGUUACCCAAGGCUUGUUGUCCAUGGCAACAGAGGAUUGAGCAUCA
B21: chr3:179287964:179287965:+_ENSG00000136518_ENST00000429709|hu_hu|hu_hu_hu_mus_True|88_108 (ssRNA)
RNA: GGGAGUUCUACAGUCCGACGAUCCUUUAGAGGUGAAAUGGCCUCCAUAUUCUCCCUGGGCACGCGGAGGGCAUUGGUGUCUAUGUAGUAGGUGGGCCCGCCCUGCUUGCCUUUGUCACCAUCAAUCUCCAUCAUUGUACUUCCCAACAGAGGAUUGAGCAUCA
B22: chr7:135839730:135839731:+_ENSMUSG00000042105_ENSMUST00000151237|mus_hu|FALSE|FALSE (ssRNA)
RNA: GGGAGUUCUACAGUCCGACGAUCAUGGUACUUUAUUUUAAUAAUCACAAGAUUUAACACGUAAAAAAAAAAGAUAGCACUAAUAAAUAACAAAAGUGGAAUGCUUAUCAAAGUAACGACAUAAUGUUCAGUUGAGAAUCAGUCCAACAGAGGAUUGAGCAUCA

molecular target: T1, UNK ZnF1-3; test: nsRBNS (natural sequence RNA bind-n-seq); RBNS binding buffer (assumed for nsRBNS): 25 mM Tris pH 7.5, 150 mM KCl, 3 mM MgCl2, 0.01% Triton X-100, 500 ug/ml BSA, 20 U/ml SUPERase-In, 4 C; UNK is unkempt and MSI1 is Musashi-1; names of the RNAs are library labels; protein concentration not given here; high values mean tight binding

Binder | binding signal
B1 | 1.23 enrichment R
B2 | 1.17 enrichment R
B3 | 0.496 enrichment R
B4 | 1.83 enrichment R
B5 | 1.09 enrichment R
B6 | 1.69 enrichment R
B7 | 2.83 enrichment R
B8 | 0.589 enrichment R
B9 | 0.947 enrichment R
B10 | 0.556 enrichment R
B11 | 0.418 enrichment R
B12 | 0.695 enrichment R
B13 | 1.47 enrichment R
B14 | 0.665 enrichment R
B15 | 0.805 enrichment R
B16 | 2.12 enrichment R
B17 | 0.835 enrichment R
B18 | 1.22 enrichment R
B19 | 0.979 enrichment R
B20 | 0.588 enrichment R
B21 | 0.786 enrichment R
B22 | 1.24 enrichment R
